Experimental data from the supplement of paper PMC4466236.
The full ranking holds about 33,000 sequences; the median of “E-score (dimensionless, -0.5 to 0.5)” is about -0.058, and the highest 2% start at about 0.35. The list shows a part of the results.

System: MvaT
Experiment: PBM 8-mer E-score (mean of HK and ME arrays) (E-score (dimensionless, -0.5 to 0.5)); higher = stronger relative binding preference; most listed sequences are background and not binding sites
Method in brief: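 Full-length P. aeruginosa MvaT carrying an N-terminal glutathione S-transferase tag was tested by protein binding microarray following a previously described protocol. Two universal double-stranded 60-mer arrays, ME and HK, were used, each with a constant 25-mer primer region and a variable 35-mer region covering all 8-mers. The rank-based E-score is the mean of the two arrays, parsed with a custom script. Its range runs from -0.5 to 0.5 for each 8-mer.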

Row | Sequence | PBM 8-mer E-score
1 | CGGCTAAG | -0.136
2 | AAAGCTAG | -0.143
3 | CTCGAGGC | -0.14
4 | CCGGCACG | -0.22
5 | GGGTCCCA | -0.171
6 | CCCCGCAG | -0.0895
7 | CCTCTATA | -0.124
8 | ACGAAAAA | 0.211
9 | ATTGTCGC | 0.0052
10 | ATATGAGG | -0.0136
11 | CGCAGCGA | -0.223
12 | CGCGCGTC | -0.217
13 | CGCAGGCC | -0.293
14 | CGAAGCCC | -0.284
15 | GGCCACAA | -0.0863
16 | AAGCAGTG | -0.191
17 | GAAACGGA | -0.164
18 | CAATATAA | 0.404
19 | TGCGAGCA | -0.192
20 | CGTACGGC | -0.13
21 | ATATAACG | 0.406
22 | CACGTCAC | 0.0371
23 | GGGATCCA | -0.223
24 | CGTGTAGA | -0.148
25 | AGGTGACG | -0.124

Row | Sequence | PBM 8-mer E-score
26 | AAGAGTCG | 0.0788
27 | CCCGAGAA | -0.164
28 | ATTGAACA | 0.161
29 | ATACCCAG | 0.103
30 | GGTGACTA | -0.0881
31 | CCTGATGC | -0.163
32 | AACCCATT | 0.0496
33 | ACGGCTAG | -0.0966
34 | CGGCCAGA | -0.256
35 | ACTGTATG | 0.0446
36 | AGACCATG | -0.252
37 | CTTTCGAA | 0.0825
38 | ATAGGTAC | -0.0108
39 | ACCTAGGG | -0.245
40 | AGAACTTA | 0.256
41 | GTTAGAGA | -0.0617
42 | AATTCCCA | 0.105
43 | CTCTACTC | -0.0821
44 | AAACTAGA | 0.145
45 | AGGCTAGC | -0.267
46 | AGTTCTAG | 0.186
47 | CCCTTTCG | -0.409
48 | AACTTCAC | 0.0764
49 | AAAGACAC | -0.0843
50 | ATACTACC | 0.189

Row | Sequence | PBM 8-mer E-score
51 | CAGCCAAG | -0.106
52 | AACTGGGG | -0.149
53 | ATGTAACG | 0.161
54 | GATGAACC | -0.124
55 | ATAGTCCG | 0.0122
56 | GATGGGCC | -0.178
57 | CGAACAAC | 0.0607
58 | ATAATACA | 0.407
59 | CGTCAGCC | -0.34
60 | AGTCATAG | -0.0787
61 | TAAGAGAA | 0.202
62 | TGAACACA | 0.133
63 | GATGGCTA | -0.202
64 | AAACGAAT | 0.239
65 | AGAACGAC | -0.181
66 | CAGTAAGG | -0.108
67 | CTTAGCGC | -0.211
68 | CGCTCGAC | -0.196
69 | TCGGATCA | 0.0217
70 | CTCCTGAC | -0.205
71 | CAGGTATG | -0.0191
72 | AGTATTGG | 0.0374
73 | ACCGTGCT | -0.0112
74 | GGACCGCC | -0.357
75 | AAAGGATG | 0.00643

Row | Sequence | PBM 8-mer E-score
76 | AAAAAGCA | 0.107
77 | GAGTTCAC | -0.00454
78 | TACCAATA | 0.211
79 | TCACTACA | -0.065
80 | CCCCCTAA | -0.159
81 | AAAGTCAC | -0.0448
82 | CCACATAG | 0.057
83 | GCGGGACA | -0.181
84 | AGTTACAT | 0.318
85 | CGTGGCGC | -0.165
86 | CTGCTAAA | -0.0825
87 | AGATGGTA | 0.0995
88 | CAAGGGAC | -0.177
89 | CACGGGTA | -0.0426
90 | AAACGTAA | 0.076
91 | ATATCACA | 0.341
92 | ACCCTTAG | -0.0746
93 | TATTCAGA | 0.109
94 | ATCGTTCC | -0.157
95 | AGCGTCTG | -0.104
96 | GTGCCGTA | -0.0875
97 | GGTACGCA | -0.199
98 | GTGCGTCA | -0.114
99 | CAACTAGC | 0.0174
100 | CTTTTAAC | 0.314

Row | Sequence | PBM 8-mer E-score
101 | CGGACAGA | -0.095
102 | ATCCAGCC | -0.0761
103 | CTTATGTA | 0.223
104 | TAACGTAA | 0.266
105 | ACACGCGA | -0.123
106 | CCCGGACA | -0.0952
107 | TAGATTCA | 0.0808
108 | AAAGTCCG | -0.0802
109 | AACTTGGT | 0.032
110 | AGACTGAA | -0.0306
111 | CCCGTTCG | -0.309
112 | ACCTCCAT | -0.0488
113 | GTCGGTCA | -0.0851
114 | CACGAGAC | -0.108
115 | CCGAACTA | -0.0158
116 | ATTCAGAG | -0.0133
117 | CGTATCAG | -0.0119
118 | AGAATCGA | 0.0194
119 | ACGCCTAG | -0.288
120 | AAACGGTT | 0.11
121 | CGGGTCAC | -0.129
122 | GCCGTACA | -0.0973
123 | CCCGCATA | 0.00227
124 | ATTTCTGC | 0.125
125 | CTTAAGCA | 0.049

Row | Sequence | PBM 8-mer E-score
126 | AGAGAGGA | -0.0774
127 | CCGCCAAC | -0.288
128 | GTGAGAAA | 0.0298
129 | CCACGGGG | -0.309
130 | AAACAACC | -0.0684
131 | GTTAGAAA | 0.0908
132 | AAAGAGTT | 0.218
133 | AATTATTG | 0.351
134 | GAGGAGGA | -0.315
135 | CCCTGCCG | -0.245
136 | GTGTCGTA | 0.0576
137 | ACCGGTAA | 0.104
138 | AATATGAC | 0.183
139 | CCTATTAA | 0.249
140 | ACCGTTAG | -0.0269
141 | AGCCAATG | -0.164
142 | CTCTCAGA | -0.134
143 | ACTCGTGG | -0.112
144 | CAGATAAC | 0.149
145 | ATGAAACA | 0.181
146 | AGCAGCAC | -0.0433
147 | TACAACTA | 0.273
148 | GACCAGCC | -0.256
149 | AGGGGTCG | -0.192
150 | CTGCTGAA | 0.0158

Row | Sequence | PBM 8-mer E-score
151 | CTGTCGTC | -0.221
152 | AGTGTCAC | -0.0041
153 | AACACTAT | 0.293
154 | GGATGACC | -0.251
155 | AGAGTAAG | 0.0917
156 | CCGTGCAA | 0.056
157 | ACTCAATA | 0.222
158 | GAATCGAA | 0.174
159 | CATGTACG | -0.0455
160 | CAGTCAGC | -0.0796
161 | CTTCAAAA | 0.169
162 | AAAATGGA | -0.00662
163 | ATAGTATA | 0.38
164 | AATAGGAC | -0.0549
165 | AATCGTAC | -0.0592
166 | GCTTTATA | 0.207
167 | GCAATAAC | 0.138
168 | GACCGACA | 0.0473
169 | AATGTATA | 0.366
170 | GCATGGAA | -0.131
171 | CAGCGTTC | -0.186
172 | ACACCGAA | -0.0354
